The results in this text go back to paper PMC12136788.

Some of the results follow.

To fix the notation:
B1: chr4:104905227:104905228:+_ENSMUSG00000028517_ENSMUST00000064139|mus_mus|motif|central (ssRNA)
RNA: GGGAGUUCUACAGUCCGACGAUCAACGGAAUCUUACAAAAAUACUGACAAUUUAAUGUUUUUAUACAGUUUUUUUUCUCGGGUUGCAGUUAUUUCAUUGUAAAACAAUGGCUACCACAGAACUAUAUCUUUAGUUGAGAUUAACAACAGAGGAUUGAGCAUCA
B2: chr8:104442852:104442853:+_ENSG00000164934_ENST00000297579|hu_mus|FALSE|FALSE (ssRNA)
RNA: GGGAGUUCUACAGUCCGACGAUCCCUCAUUUCCAGGAUAACCUUUUUCAAAGGAGUAGCUUGCCGCAUAUCAUACAGUACUAUAUUCCUAUCAGAAGCACAACUUCCCAAGAGAAAUGUCUCAACAGGGUUAAAUUUAACACUCAACAGAGGAUUGAGCAUCA
B3: chr8:24301720:24301721:-_ENSMUSG00000031545_ENSMUST00000167004|mus_hu|FALSE|FALSE (ssRNA)
RNA: GGGAGUUCUACAGUCCGACGAUCUUCCAGAGGUUUUACAUGGUUUUCCUGCCCAAGAGCAUUCAACAGAUAAAUCUGUCCUGCAGAUCUGUCACUACCAGAAGUACGAAGAAGAAUUAAACUUGGUGCCAGAAAAAUCCUGAUCAACAGAGGAUUGAGCAUCA
B4: chr14:102368134:102368135:+_ENSG00000078304_ENST00000445439|hu_mus|FALSE|FALSE (ssRNA)
RNA: GGGAGUUCUACAGUCCGACGAUCAAGAGGCUCCAUGAUCUUCACAAACUCUGAUGGUUCAAUUACAUCUAAAAUUUCUUCUAAUUCAUUUAAGAACAUUACUUCUUUUGGACUGUGAGUCUUUGGCCAGUAUUUGAGAAGUGCCAACAGAGGAUUGAGCAUCA
B5: chr10:120830595:120830596:-_ENSG00000107581_ENST00000369144|hu_hu|FALSE|FALSE (ssRNA)
RNA: GGGAGUUCUACAGUCCGACGAUCUUUGAAAGCUUGCUGGGCAAUAUCAUGGUACAGGCGCUCUACUCUAGAAUUGUUUCUAAGAAGGUCCAAACACUGCCUGUAAGACUCCCACAGGAAUUUAACCCAUGGAGUUAAAAGUAACAACAGAGGAUUGAGCAUCA
B6: chr12:101444792:101444793:+_ENSMUSG00000001175_ENSMUST00000110082|mus_hu|FALSE|FALSE (ssRNA)
RNA: GGGAGUUCUACAGUCCGACGAUCGAUGUGUAGCUUGAUCUUUAGGGGACAGGACCACCAACCAAUACAUGCAGAUUUUGUGUGUGUGGACAGAAGGUACUUUUGACAUUCAGUUUUGCUAUAUAGAAACAGAAUGAAUAAAUGCAACAGAGGAUUGAGCAUCA
B7: chr2:216981417:216981418:+_ENSG00000079246_ENST00000392132|hu_hu|hu_hu_hu_mus_True|1_8 (ssRNA)
RNA: GGGAGUUCUACAGUCCGACGAUCCUGAUACUGGUCCUUGCCAGCAAGGGCAUUAUCAGUGCCAUCUGUGCCAUAGAGGACUAACGCAAUCUCAUCUUUGCUCUCCGAAAAUACCUGUCGUUGGACAAACAUGGUUAUCACCUUCAACAGAGGAUUGAGCAUCA
B8: chr4:144449117:144449118:+_ENSG00000153147_ENST00000283131|hu_hu|FALSE|FALSE (ssRNA)
RNA: GGGAGUUCUACAGUCCGACGAUCCACUAUUUCUGACAACUUAGAUUUUUCAUUUUUGAUCCUGUGAGCUUCAUCUAUUACUAAGUAUCUCCAAUUAAAUUUUUUGAACACAGACUUCUCUUUAAUAAGCAUUUCAUAAGAUGUCAACAGAGGAUUGAGCAUCA
B9: chrX:69798090:69798091:-_ENSMUSG00000031343_ENSMUST00000055966|mus_mus|mus_mus_mus_hu_False|28_48 (ssRNA)
RNA: GGGAGUUCUACAGUCCGACGAUCAAGUCCCCGGGUUCUUGUCGUCUUGAUUCCCCUUGACCAGUGGUUCCAGGGAGAAUAUUAAUCAGGAGAAGAAUCCCAAGGCUGGUCACAUAACAGUGACUUGUUUGUGUGAUUAUCAUCCAACAGAGGAUUGAGCAUCA
B10: chr4:140556289:140556290:+_ENSMUSG00000036622_ENSMUST00000037055|mus_mus|mus_mus_mus_hu_False|1_38 (ssRNA)
RNA: GGGAGUUCUACAGUCCGACGAUCGAUGGAGCUCACCAGGCCCCCUUUUGCCGUGCAGAACCCUGUGCGGGUCACCACUGCCAGGACGUGCGGUCCCACGUAGGCUCGGGCCUGCAAGAUGAGGGUCCCGCAGAAGAGGGUGUGCAACAGAGGAUUGAGCAUCA
B11: chr2:9570881:9570882:+_ENSG00000119203_ENST00000238112|hu_mus|hu_hu_hu_mus_False|98_98 (ssRNA)
RNA: GGGAGUUCUACAGUCCGACGAUCACUUGUCUUCUGAAGAAACCAGGGCAGGGCUCCACAGUGAUCCAAAUGGAAAUGACUGAUCAACAGAAGGUCGAUCUCAGCUGGGUCGAUAAGGUCAAUGUAAGGAAGGGCAUCCAUUCCCAACAGAGGAUUGAGCAUCA
B12: chr3:33945423:33945424:+_ENSMUSG00000027680_ENSMUST00000167354|mus_mus|FALSE|FALSE (ssRNA)
RNA: GGGAGUUCUACAGUCCGACGAUCGGUAUUUUUUUUGACAGUUUUAUUUUGAUUGACAGGCCGAAGUCGUUCAAAUGUGACUAUUUCAUUGUAAGUGGCAUCACAAGCAGCAUAUUCAAUGACAUAAAACUCGCCUUUCAUCAUCAACAGAGGAUUGAGCAUCA
B13: chr5:38529174:38529175:-_ENSMUSG00000029126_ENSMUST00000031009|mus_hu|FALSE|FALSE (ssRNA)
RNA: GGGAGUUCUACAGUCCGACGAUCAAGUAGCUCAAGCUUACCAGAAAUUACAUUUCCACUUUUCCCACCCAGCUCAUUUCUUUAAAAACUAAUGGGGCUAUUGGUGCAAAUUUAUUCAUAAUAGAAGUGAACCAGAGGGCCAGUCAACAGAGGAUUGAGCAUCA
B14: chr7:65705844:65705845:+_ENSG00000169902_ENST00000304842|hu_mus|hu_hu_hu_mus_False|1_28 (ssRNA)
RNA: GGGAGUUCUACAGUCCGACGAUCAAACGGAUCUUUGUUACAUAAAUAAGGUGCCGGCUCCCCAUGUUUAACAAUGACCUCCAGAAGGAAGGCUUGCAUGGCAGAAUCCAGCACUUCAUCUGUGACACCCGCCUCAUCCAGGCGCAACAGAGGAUUGAGCAUCA
B15: 82109858_82109978_193_3pUTR_ENSMUSG00000022456_ENSMUST00000023095|mouse|control|control (ssRNA)
RNA: GGGAGUUCUACAGUCCGACGAUCGAUAAUGGUGUCAAUGCCAAUGUAGCCUAGCAGGUUGGAGUUGAUGCUGACCGGCUUCAUGGGCACCGCCGGCUUAGGCCUGGGCUCAGGUACCAGCUCAGACAUGGCUGCGUCCGUCCUCAACAGAGGAUUGAGCAUCA
B16: chr5:156566098:156566099:-_ENSG00000155868_ENST00000420343|hu_mus|FALSE|FALSE (ssRNA)
RNA: GGGAGUUCUACAGUCCGACGAUCGGGUCGAUAUUCAUUUAUAAGAUGAUGUACAUGUACAAAAAGUAGCUUAAGAUCUUCUAGCUUUUCUUCUCGUUUUAUACUCCCAGGACUUCUUAUUAAGAUGUCUAAAAGGUCUAAGAACAACAGAGGAUUGAGCAUCA
B17: chr10:33214929:33214930:-_ENSG00000150093_ENST00000302278|hu_hu|hu_hu_hu_mus_True|78_108 (ssRNA)
RNA: GGGAGUUCUACAGUCCGACGAUCAACAAGUUCAUUAAAAAACUCUCCUCUGUCAGUAAGACUGAGCACAUUUUUGUAGCUAAAUGGGCUGGUGCAGUUUUGUUCACUUGUACAAGGAUUUCUUAGCUUUGCUGGGGUUGUGCUCAACAGAGGAUUGAGCAUCA
B18: chr8:15480645:15480646:+_ENSG00000104723_ENST00000503731|hu_mus|FALSE|FALSE (ssRNA)
RNA: GGGAGUUCUACAGUCCGACGAUCCAUUCUGAAGAUCGAGCGCCUGGAACUCCAUUCCAUCAGCUGCUCCACUUUUUCAGCCAAAAGGUUCUCCUUUUUCUUCUGUCCGCCCCCGAGCUGGAUGCAGAGCAGCAGCAGCAAGAGCAACAGAGGAUUGAGCAUCA
B19: chr1:186329063:186329064:-_ENSG00000047410_ENST00000367478|hu_mus|FALSE|FALSE (ssRNA)
RNA: GGGAGUUCUACAGUCCGACGAUCUUUGGCUUCCACUUCUUUUACUAUCUCAUCCAGAUACUUAUUAAUCCUUUUAUUUUCUUGUUUUUCCAAAAGCAACUGAUCCUGAGUUUCCACAUAAGCAUUAUAUAGCUCAGUUAAUUUCAACAGAGGAUUGAGCAUCA
B20: chr9:115598534:115598535:+_ENSG00000148158_ENST00000374232|hu_hu|motif|central (ssRNA)
RNA: GGGAGUUCUACAGUCCGACGAUCCAGCUUGUAGCCGCCAGUGACGUGCUUGACUGACUCGCCCAUUCUGGUCAGCAAUGCGGUCCCUUGCUUCUUGUAGGCGUUCAGGUCCUUAGCAGUAAGGAAAAUAUUAAAGUGUUCAUUCAACAGAGGAUUGAGCAUCA
B21: chr4:107938606:107938607:-_ENSMUSG00000034636_ENSMUST00000043616|mus_hu|FALSE|FALSE (ssRNA)
RNA: GGGAGUUCUACAGUCCGACGAUCAACAUCCAGAGAAACAAGGUUAGGUAGGAUGUCUUUUUGUUCUAGUAAGCGAAGAGCUAUGUCUGAUGUAAACUGUUUAUCAUCUGAGAUAUCAAGAUGAUUCAGAUGUUUGAGUUCCCGCAACAGAGGAUUGAGCAUCA
B22: chr1:151007788:151007789:+_ENSG00000143363_ENST00000271620|hu_hu|FALSE|FALSE (ssRNA)
RNA: GGGAGUUCUACAGUCCGACGAUCUGGGUCAACACGCCAUGAACCACACCCCUAUUCGUGCUACAUGAGGCUGAGUCCUUGCUACAACCACACAGAAAUACAGACAAUCAAGUGAACCUGAGCACCCCCAGGGAUAACAGAAGACAACAGAGGAUUGAGCAUCA

This experiment concerns the target T1, UNK ZnF1-3 (human, UniProt Q9C0B0 31-174).
T1 sequence: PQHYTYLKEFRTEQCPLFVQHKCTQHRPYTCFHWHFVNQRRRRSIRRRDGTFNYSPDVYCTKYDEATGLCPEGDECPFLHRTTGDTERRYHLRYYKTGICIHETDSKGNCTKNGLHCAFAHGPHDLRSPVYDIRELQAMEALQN
As to the kind of experiment: nsRBNS (natural sequence RNA bind-n-seq); RBNS binding buffer (assumed for nsRBNS): 25 mM Tris pH 7.5, 150 mM KCl, 3 mM MgCl2, 0.01% Triton X-100, 500 ug/ml BSA, 20 U/ml SUPERase-In, 4 C; UNK is unkempt and MSI1 is Musashi-1; names of the RNAs are library labels; protein concentration not given here; high values mean tight binding.
On to B1, for which the binding signal is 0.434 enrichment R.
The figure for B2 is 1.26 enrichment R; for B3 it is 1.34 enrichment R; for B4 it is 0.737 enrichment R.
For the molecule B5, the binding signal came to 0.815 enrichment R.
The figure for B6 is 1.57 enrichment R; for B7 it is 0.687 enrichment R.
For B8, the binding signal amounted to 1.51 enrichment R.
The figure for B9 is 0.538 enrichment R; for B10 it is 0.381 enrichment R.
With B11 the figure was 1.52 enrichment R; with B12, 0.956 enrichment R.
With B13 the figure was 1.3 enrichment R; with B14, 0.307 enrichment R.
In turn, B15 returned a binding signal of 0.447 enrichment R.
The figure for B16 is 0.432 enrichment R.
The molecule B17 returned a binding signal of 1.15 enrichment R.
With B18 the figure was 0.999 enrichment R; with B19, 0.611 enrichment R; with B20, 0.912 enrichment R.
Take B21: the binding signal was 1.07 enrichment R.
The figure for B22 is 1.78 enrichment R.
